Where “and” joins values, the source holds several entries; their conditions need not be identical. Equal entries are not always repeated. The whole screen tested about 110,000 compounds, of which about 230 (0.21%) showed an effect of 50% or more. The list shows a part of the results.
Biological target: DPAP1 (Plasmodium falciparum, UniProt Q8IIJ9)
Test: primary screen, percent inhibition; read by cleavage of a fluorogenic dipeptide substrate; higher = more effect of the substance
Parameters: species or system P. falciparum D10 trophozoite lysates; single well
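Further: 30 min substrate incubation versus DMSO and 10 µM JCP410 controls.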

Sequence of DPAP1 (Q8IIJ9 whole entry, looked up): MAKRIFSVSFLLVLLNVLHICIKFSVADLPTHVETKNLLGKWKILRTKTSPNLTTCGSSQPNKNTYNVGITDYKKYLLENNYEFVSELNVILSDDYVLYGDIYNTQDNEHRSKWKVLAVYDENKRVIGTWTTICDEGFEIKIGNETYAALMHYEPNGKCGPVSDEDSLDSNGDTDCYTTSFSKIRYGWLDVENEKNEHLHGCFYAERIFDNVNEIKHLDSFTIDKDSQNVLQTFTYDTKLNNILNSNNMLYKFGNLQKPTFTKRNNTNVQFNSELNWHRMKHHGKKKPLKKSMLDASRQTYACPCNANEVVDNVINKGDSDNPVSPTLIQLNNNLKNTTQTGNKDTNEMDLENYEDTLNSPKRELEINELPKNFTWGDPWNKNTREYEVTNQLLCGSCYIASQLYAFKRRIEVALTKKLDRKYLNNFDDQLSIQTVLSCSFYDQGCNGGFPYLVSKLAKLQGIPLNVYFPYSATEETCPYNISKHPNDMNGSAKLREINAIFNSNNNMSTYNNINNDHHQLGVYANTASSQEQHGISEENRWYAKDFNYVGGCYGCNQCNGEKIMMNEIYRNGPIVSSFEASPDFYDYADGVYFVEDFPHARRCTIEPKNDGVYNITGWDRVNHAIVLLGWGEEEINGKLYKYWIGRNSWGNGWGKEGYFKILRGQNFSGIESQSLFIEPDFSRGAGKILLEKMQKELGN

Structure (SMILES)	% Inhibition @ 10 uM
CC12CN(Cc3ccccc3)CC(C)(CN(Cc3ccccc3)C1)C2O (stereo not drawn)	-4.23%
COc1ccccc1C1C(C#N)=C(N)OC2=C1C(=O)CCC2 (stereo not drawn)	3.99%
O=C1CC(NC2CCCCC2)C(=O)N1c1cccc(C(F)(F)F)c1 (stereo not drawn)	-1.95%
CC(C)CCNc1c(-c2cccc(Cl)c2)[nH]c2c(C#N)cnn12	-4.71%
O=C1NC2(CCN(C(=O)c3ccc4ccccc4c3)CC2)N=C1c1ccccc1	-1.6%
Cc1ccc(N2C(=O)c3ccc(C(=O)O)cc3C2=O)cc1C	2.22%
O=C1NC(c2ccc(Cl)cc2)Nc2c1sc(=S)n2-c1ccccc1 (stereo not drawn)	2.92%
CC(C)CNS(=O)(=O)c1ccc(S(=O)(=O)N2CCN(c3ncccn3)CC2)cc1	-2.92%
CC1CCN(C2CC(=O)N(c3ccc(Br)cc3)C2=O)CC1 (stereo not drawn)	2.4%
Cc1ccc(C(C)NC(=O)c2ccccc2)c(C)c1 (stereo not drawn)	5.04%
O=S(=O)(c1ccc2[nH]c3c(c2c1)CCCC3)N1CCc2ccccc2C1	-4.44%
CSc1nc(Oc2ccc(C)c(C)c2)cc(-n2nc(C)c(C(N)=O)c2N)n1	3.67%
COc1cc(C2C(C#N)=C(N)OC3=C2C(=O)CCC3)cc(OC)c1O (stereo not drawn)	3.31%
O=C(Nc1c(C(=O)N2CCN(c3ncccn3)CC2)oc2ccccc12)c1cccc(F)c1	1.23%
CCCCN(C)c1ncnc2c1sc1nc3c(cc12)COC(C)(C)C3	-3.41%
O=C(NCc1cccnc1)Nc1ccc(Cl)c(Cl)c1	2.79%
Cc1csc(NC(=O)CNS(=O)(=O)c2cccs2)n1	1.07%
Cc1cccc(C(O)(c2ccccc2)C(CN2CCOCC2)c2ccccc2)c1 (stereo not drawn)	2.73%
Cc1cc(/C=C2/SC(=O)N(Cc3ccccc3C#N)C2=O)c(C)n1-c1ccc(S(N)(=O)=O)cc1	2.65%
CCCCn1c(=O)c(C(=O)Nc2ccc(OCC)cc2)c(O)c2ccccc21	-17.7%
CCN1CCN(C/C=C(\C)CCC=C(C)C)CC1	-0.505%
O=C1CC(N2CCN(CCO)CC2)C(=O)N1c1ccc(Br)cc1 (stereo not drawn)	0.823%
Cc1nc2ccccc2c2oc(C(=O)NCc3ccc4c(c3)OCO4)cc12	3.01%
COCCNC(=O)Cn1nc(C)c(NC(=O)c2cc(-c3ccc(F)cc3)no2)c1C	0.526%
COc1cc(C2C(C#N)=C(N)OC3=C2C(=O)CCC3)ccc1OCc1ccc(F)cc1 (stereo not drawn)	1.57%

Structure (SMILES)	% Inhibition @ 10 uM
O=C(Nc1cccc2ccccc12)C1CC1c1ccccc1 (stereo not drawn)	-4.61%
CC(=O)Nc1ccc(S(=O)(=O)C(CC(=O)c2ccccc2)c2ccc(N(C)C)cc2)cc1 (stereo not drawn)	-2.46%
c1ccc(Sc2c(-c3ccccc3)nc3sccn23)cc1	4.35%
O=c1cc(N2CCCC2)c2ccccc2o1	0.0719%
COc1cc(SC)ccc1C(=O)Nc1ccc(S(=O)(=O)N2CCC(C)CC2)cc1	0.562%
N#CC1=C(SCC(=O)N2CCOCC2)NC(=O)CC1c1ccccc1F (stereo not drawn)	6.08%
CCC(=N)c1ccc(OC)c2cccc(NC)c12	10.9%
O=C(NCCc1nc2ccccc2[nH]1)c1cc2ccccc2o1	-4.13%
CN(C)CCn1cnc2c1c(=O)n(C)c(=O)n2C	-1.81%
c1ccc(CCN2CCC(NCC3CCCCC3)CC2)cc1	0.217%
O=C(CCN1C(=O)c2ccccc2C1=O)NCCC1=CCCCC1	-3.51%
CC(C)=CCC/C(C)=C/CN1CCN(c2ccccc2)CC1	-0.603%
Cc1nnc(N2CCC(C(=O)NC3CCCc4ccccc43)CC2)c2nn(-c3ccccc3)c(C)c12 (stereo not drawn)	-6.13%
CC(=O)c1cccc(N2C(=O)c3ccc(Cl)cc3C2=O)c1	-3.69%
COc1ccc(OC)c(C2C(C#N)=C(C)N=C3CCCC(O)=C32)c1 (stereo not drawn)	-1.2%
COc1ccc(C(=O)Nc2cc(Cl)c(NC(=O)c3ccccc3)cc2OC)cc1	1.15%
CCOC(=O)C(C#N)=C1SC2CS(=O)(=O)CC2S1 (stereo not drawn)	-3.98%
COc1ccc(C2CC(C(F)(F)F)n3ncc(C(=O)Nc4cc(Cl)ccc4O)c3N2)cc1OC (stereo not drawn)	-4.39%
O=C(Nc1cccc(Cl)c1)c1ccccc1NC(=O)C1CC=CCC1C(=O)O (stereo not drawn)	-0.872%
CCc1ccc(C2N3CC4(C)CN2CC(C)(C3)C4O)cc1 (stereo not drawn)	-1.71%
COc1cc(C2=NOC(C(=O)NCC3CCCO3)C2)cc(OC)c1OC (stereo not drawn)	1.24%
O=C(CC1(O)C(=O)Nc2ccc(Br)cc21)c1ccc2ccccc2c1 (stereo not drawn)	4.03%
O=C(O)/C=C/C(=O)N1CC=C(c2ccccc2)CC1	5.52%
O=C(c1cc(-c2ccc(Cl)cc2)nc2ccccc12)N1CCOCC1	-3.18%
COc1ccc(S(=O)(=O)Nc2ccc(Cl)cn2)c(C)c1C	-4.86%

Structure (SMILES)	% Inhibition @ 10 uM
C=CCNc1nc(N)c(C(=O)c2ccc(OC)cc2)s1	-0.0678%
COc1ccc(N(CC(=O)NCc2ccco2)S(=O)(=O)c2ccccc2)cc1Cl	2.09%
CCSc1nc(O)c2c(n1)N=C1CC(C)(C)CC(O)=C1C2c1ccc(OC)c(OC)c1 (stereo not drawn)	-2.56%
N#CC1C(=O)NC(=O)C([n+]2ccccc2)C1c1ccc(O)cc1 (stereo not drawn)	5.35%
CC(=O)c1ccc(-n2c(CCC(=O)O)ccc2-c2ccccc2)cc1	6.85%
CCOCCc1nnc(NC(=O)/C=C/c2ccccc2)s1	3.25%
Cc1ccc(NC(=O)c2ccc([N+](=O)[O-])cc2)c(Br)c1	-6.68%
O=S(=O)(c1ccc(OC(F)(F)F)cc1)N1CCC(O)(c2cccc(C(F)(F)F)c2)CC1	-1.07%
COc1ccc(N2C(=O)CC(NCc3ccc(F)cc3)C2=O)cc1 (stereo not drawn)	-1.88%
O=C1OC(/C=C/c2ccccc2)=NC/1=C/c1ccc2c(c1)OCO2	-0.945%
CC(Cc1ccccc1Sc1ccc(O)cc1)N(C)C (stereo not drawn)	-6.02%
O=C1OC(c2cccc(Cl)c2Cl)=N/C1=C/c1ccco1	-0.77%
O=C(NCc1ccccc1Cl)c1nnc(Cc2ccc(F)cc2Cl)o1	3.5%
CN(Cc1ccccc1)C(=O)C1CCN(C(=O)c2cnn(-c3ccccc3)c2-n2cccc2)CC1	-3.35%
Cc1cc(-c2ccco2)n(-c2ccccc2)n1	1.33%
CC(=O)NC12CC3(C)CC(C)(C1)CC(NC(C)=O)(C3)C2	-0.636%
O=C(COc1ccccc1)Nc1ccccc1-n1cccc1	-1.98%
O=C(C1CCN(S(=O)(=O)c2c[nH]cn2)CC1)N1CC=C(c2ccccc2)CC1	2.9%
O=C(CCCN1C(=O)C(c2ccccc2)Oc2cccnc21)NCc1ccc(F)cc1 (stereo not drawn)	-1.53%
CC(NC(=O)c1ccc(CSCc2ccccc2F)o1)c1ccccc1 (stereo not drawn)	0.718%
CCn1cc(CN(C)C(=O)c2cnn3c(C(F)F)cc(-c4ccccc4)nc23)c(C)n1	1.51%
Cc1ccccc1OCCCCCN1CCCC1	2.25%
CCNC(=O)/C(C#N)=C/c1c(Oc2ccc(OC)cc2)nc2ccccn2c1=O	0.189%
Cc1cc(NCCc2ccccc2)cc(=O)n1CCc1ccccc1	-1.61%
Cc1cccc(C)c1NC(=O)c1c(Br)c(C)nn1C	0.686% and 3.65%

Structure (SMILES)	% Inhibition @ 10 uM
Cc1c2cnn(CC(=O)NCCCN3CC(C)CC(C)C3)c(=O)c2c(C)n1Cc1ccc(Cl)cc1 (stereo not drawn)	1.22%
O=C(c1ccc(Br)cc1)N1CCN(c2ccc(F)cc2)CC1	0.815%
C=C1c2cc(C)c(C)cc2NC(=O)N1c1ccc(Cl)cc1	0.214%
Cc1cc(C)c2c(-n3cccc3)c(C(=O)N3CCC(N4CCCCC4)CC3)sc2n1	5.42%
O=C(Nc1ccccc1F)C(c1ccccc1)c1ccccc1	-1.48%
Cc1nn(C)cc1CNC(=O)CCC(=O)O	3.94%
COc1ccc(C2=NCCO2)cc1OC1CCCC1	-1.61%
CCOc1cc(C(=O)NCCSc2c(C)[nH]c3ccccc23)cc(OCC)c1OCC	-1.82%
Cc1nc2c3cccnc3nn2c(C)c1CCC(=O)NCCc1ccco1	-1.7%
O=C(Nc1ncccc1Cl)C1CC2CCC1C2 (stereo not drawn)	-1.88%
CCCCn1c(=O)c(C(=O)Nc2cccc(C(F)(F)F)c2)c(O)c2ccccc21	-7.9%
O=C(NCCn1ccc2ccccc21)C(c1ccccc1)c1ccccc1	4.78%
Cc1ccc(-c2[nH]nc3c2C(c2cccs2)C2=C(O)CCCC2=N3)cc1 (stereo not drawn)	2.97%
O=c1[nH]c(=O)n(Cc2ccco2)c2c1C(C(F)(F)F)(C(F)(F)F)NC(CCC1CCCCC1)=N2	-1.18%
CCCN(CCO)Cc1c(OC)ccc2ccccc12	-7.34%
COc1ccc(N2CCN(Cc3c[nH]c4ccccc34)CC2)cc1	-1.07%
Cc1ccccc1Cn1c(C(=O)O)c(CNCCc2ccccc2Cl)c2ccccc21	-4.61%
CCS(=O)(=O)c1nc(S(=O)(=O)c2ccc(C)cc2)c(N2CCC(C)CC2)s1	-2.25%
Cc1ccc(C)c(S(=O)(=O)N2CCC(C)CC2)c1	0.565%
CCN(CC)CCNC(=O)c1cc2c(-c3ccc(Cl)cc3)nn(C)c2s1	-11.3%
Oc1[nH]c2ccccc2c1/C=N/Cc1ccc(F)cc1	-1.62%
Cc1cc(C)nc(N2CCN(c3ncnc4c3cnn4-c3ccccc3)CC2)n1	10.9%
Cc1n[nH]c2c1C(c1c(C)nn(C)c1C)C(C#N)=C(N)O2 (stereo not drawn)	-4.28%
COc1ccccc1C1(c2ccccc2OC)c2ccccc2Nc2ccccc21	-4.21%
